Assay results published in paper PMC12136788.
The list shows a part of the results.

B1: chr2:153237265:153237266:-_ENSMUSG00000061411_ENSMUST00000109784|mus_mus|mus_mus_mus_hu_False|28_108 (ssRNA)
RNA: GGGAGUUCUACAGUCCGACGAUCAAAAAAAAGAAAAAAAAAGUGUCCUUGUGCCCAAAGUCUCAGGUGCUUGGAGUGUGGCUAGAAACAGCUCUUUUGGAUCCCACCUCUUUCAGAAACAAAAUGUACCAACUGGUGAGGCAGCAACAGAGGAUUGAGCAUCA
B2: 84551238_84551358_529_5pUTR_ENSMUSG00000034075_ENSMUST00000035840|mouse|control|control (ssRNA)
RNA: GGGAGUUCUACAGUCCGACGAUCGUGAUUUAAUUUUAUUUAUGUCUCUCUUGAUGGACAAAGUUGGAUAACAGCUGUUACAGGGUUGAGUUGUAAAUCCUUUUCUUUGAAUGGGGAGAAAAAAACAGACAGCAGUAUUGCCUGCAACAGAGGAUUGAGCAUCA
B3: 44922105_44922225_2795_3pUTR_ENSG00000146676_ENST00000395699|human|control|control (ssRNA)
RNA: GGGAGUUCUACAGUCCGACGAUCUCUAUUUUUUUAAAAAAGCCUAAUUUUAUGUACACAAUUAUUUCCCGCCCUCUCAGCCACAAAUACAUGAAAACCUUUUUGUAUAUUACUCAUUUCCCAAUAAAUACAAAAAGAUUGUAUCAACAGAGGAUUGAGCAUCA
B4: chr13:81889239:81889240:+_ENSMUSG00000051098_ENSMUST00000057598|mus_mus|FALSE|FALSE (ssRNA)
RNA: GGGAGUUCUACAGUCCGACGAUCCAUGGCAAAAGUAGACACUUUGUGGCAUAUCCCAGCUUUUGAAAUAUAGUUAGAAGCUAAGCGAAACAGCCUUUCGGCACCAAAGGUAUUGAAGUGCCCAGGAAGCACCUUCUCCACAAGCAACAGAGGAUUGAGCAUCA
B5: chr3:98531265:98531266:-_ENSG00000057019_ENST00000326840|hu_hu|motif|central (ssRNA)
RNA: GGGAGUUCUACAGUCCGACGAUCUCCGAGCAGCUCCAUUUUCAUGGCAAUUUUCUGCUGCCAUUGGGUAGGAUUCACUCGGAUAAAACGUGCAAUAAUUGGUGGCAAAAAGUUAUUACGCACAUCCUGGUGAUAAUCUUUGUUCAACAGAGGAUUGAGCAUCA
B6: 36543091_36549158_1918_CDS_ENSMUSG00000032116_ENSMUST00000120381|mouse|control|control (ssRNA)
RNA: GGGAGUUCUACAGUCCGACGAUCUCCAAUCCGGACCAUCCAAAGAAACUUGUUGAUAUCAUCCGAAGAAUACCCAGUAAGGCCUCCAAAAAUGACAAGCACAUAGCUGACAUCAAGCUCCCUCAUGAUUUCAUAGGCUUUUUCCAACAGAGGAUUGAGCAUCA
B7: 26721622_26723578_1361_CDS_ENSMUSG00000024921_ENSMUST00000025862|mouse|control|control (ssRNA)
RNA: GGGAGUUCUACAGUCCGACGAUCUGCCUCACGCAGGGUCUGGCGCUUGCUCCGCUUAUAUGCUUUGGAGUUGAGGGCCGUCUCCAGGGUGGUGUCCCUCCGCAUGCAGGCCACCACCUCCUGUCUCAGCUGACGUUGGAAGUUCAACAGAGGAUUGAGCAUCA
B8: chr6:40197388:40197389:+_ENSMUSG00000057716_ENSMUST00000061740|mus_mus|mus_mus_mus_hu_False|28_78 (ssRNA)
RNA: GGGAGUUCUACAGUCCGACGAUCGAGACACUGGGGUGGAUUUAUUCCACCUCUGUUUGCUAGCCUCCCACUAAGACUGUUAUUUUGGGAUUCAUGGCCUUGAAUAUCAAGAGGAAAAGGAAGAGGAUGGAAAGAGUCAAGAGUCAACAGAGGAUUGAGCAUCA
B9: chr11:120326911:120326912:-_ENSMUSG00000057594_ENSMUST00000124970|mus_mus|FALSE|FALSE (ssRNA)
RNA: GGGAGUUCUACAGUCCGACGAUCAUCACUUGCAGAUACACUGGGUGGCCUGCUCCUAUCAAACACCUCAGGCUCUCAUGCAUUUGCCUCCUAGGCACUGGGUGGGGUCAGCCAUACUUCUCCAUCUUGCUGUCAACUGCUGUGCAACAGAGGAUUGAGCAUCA
B10: chr4:95690885:95690886:+_ENSMUSG00000028572_ENSMUST00000156910|mus_mus|mus_mus_mus_hu_False|1_78 (ssRNA)
RNA: GGGAGUUCUACAGUCCGACGAUCUUUAGAAAAUGUUAAAUACCAUGCUAAAAUAUUGUAAUUUUAAUAUUUUAUUUUACCAGAAGUCACAGGCAAGCAGACACUACAAGAAUAUAUGAAAAUGAAACUCAACAAUAAAAUGUACAACAGAGGAUUGAGCAUCA
B11: chr3:160150142:160150143:+_ENSG00000113810_ENST00000344722|hu_hu|FALSE|FALSE (ssRNA)
RNA: GGGAGUUCUACAGUCCGACGAUCAAAACCUGCCAUAAAUUCAUUAAGCCUUUGUUUCCGAAGAUCUUCAUAUGCCUGUCUAAAACUGUCUCUUUCAUAAGUAAUUUUGUCCAAUUCUGCUACCCGUUGCAAAUACAAUUCUUCCAACAGAGGAUUGAGCAUCA
B12: chr22:32879901:32879902:+_ENSG00000100225_ENST00000397426|hu_mus|hu_hu_hu_mus_False|8_98 (ssRNA)
RNA: GGGAGUUCUACAGUCCGACGAUCCUCUUCCAUACUCGCAUUAUCUUGAAUUGACUCAGCUUCAACAUUUUGACUAGGCCCUUCCAUACUGUCAUCAGUCCAGGCAUCAAAUGGGGUGGCCUGUCCUUGGAAUGAAUCAGUCCCCAACAGAGGAUUGAGCAUCA
B13: chr17:61683753:61683754:+_ENSG00000136463_ENST00000258975|hu_hu|motif|central (ssRNA)
RNA: GGGAGUUCUACAGUCCGACGAUCAAAAGAGUGACGAGCUCCUACAGCCAUCACUCCUCCAUUCUUAUUCAGGAUAUGUCGGAUGUCUGCUUGGCACUUGUGGCUACUGUUAGAUAAUGCCUCGAUGAGCAGAGAAGAGCCACCCAACAGAGGAUUGAGCAUCA
B14: chr17:65740002:65740003:+_ENSG00000130935_ENST00000581375|hu_hu|hu_hu_hu_mus_False|58_108 (ssRNA)
RNA: GGGAGUUCUACAGUCCGACGAUCAACCCGUUCUUGCUCCCUGGACGAACAGGAAGAUUCAUAUUAAAAAAAAUAUAUGUCUAUGAAGUUAGGUGUGGUGGCCACACCUUUACUCCCAGCACUUUGGGAGGUGGAUCUCUGAGUCAACAGAGGAUUGAGCAUCA
B15: chr2:5814250:5814251:-_ENSMUSG00000025816_ENSMUST00000102981|mus_hu|mus_mus_mus_hu_True|28_28 (ssRNA)
RNA: GGGAGUUCUACAGUCCGACGAUCUUCCUUUCCGGUUUCUGAAUUUCUGGUAGAACUGCACAGAAUGGUUUGAUAACUUCUAAAAAUUUGAUGCCCAUGGCUGCUGCUCAGCACACCCAGGGGGAAACCGCGGCCUCGGCGCUGCAACAGAGGAUUGAGCAUCA
B16: chr1:161326577:161326578:+_ENSG00000143252_ENST00000367975|hu_mus|FALSE|FALSE (ssRNA)
RNA: GGGAGUUCUACAGUCCGACGAUCUAGCAAGUGUCGGAUCCCAUUCAGUGAGUGGUACAUGAGCGGGAAGACAAGCACAAACUUAGCCGAGUAGAUCAGUGUUGGCCCCAAACACAGGGACUUCACAAACAUCAAAUAUGACUCCAACAGAGGAUUGAGCAUCA
B17: chr15:98516890:98516891:+_ENSG00000140450_ENST00000268042|hu_hu|FALSE|FALSE (ssRNA)
RNA: GGGAGUUCUACAGUCCGACGAUCAAUAAUAAAAAUAAGAAAGCUUUCAUAGUUAACUUACCAAAAACAUAACGCUUGCCUAUUGUUUCUUACUGUGCAAAACAAAAACAAAGUUUUGCCCACAGAAGGAUUUUGUGCACCAAACAACAGAGGAUUGAGCAUCA
B18: chr19:16212804:16212805:+_ENSG00000167460_ENST00000300933|hu_mus|hu_hu_hu_mus_False|8_68 (ssRNA)
RNA: GGGAGUUCUACAGUCCGACGAUCAACAAUUCUGGAGUGAAGGAAAGAUGUAACAUGGAACAGCAUUCCAUCUAUUACAGAAGGCACAUGGGCAACAAUGAUCACCCCAGCAUUCUCGCUUGGAAUGUGCUUGAGAAAUCUGUUCAACAGAGGAUUGAGCAUCA
B19: 68318318_68318438_971_3pUTR_ENSMUSG00000048922_ENSMUST00000150006|mouse|control|control (ssRNA)
RNA: GGGAGUUCUACAGUCCGACGAUCCUUCCACAUACAGGAGUCGCUGGAGACCUGGUGGCGGUGGUCUUAGCGGAGGGGCUGCUGCUCCCGCACAUAGGAGUCUCUGGAGACCUGGUGGCAGUGGCUGUGCCUGAGCUCAGUGGUCAACAGAGGAUUGAGCAUCA
B20: 56705951_56706333_2214_CDS_ENSMUSG00000042625_ENSMUST00000075510|mouse|control|control (ssRNA)
RNA: GGGAGUUCUACAGUCCGACGAUCCUGCAUCCGUUCCCGCUGCAAGCGAGCCUUCUCCCGUCGCUCCUGGAAGGCAUCCAGACGCUGCUCCCGCUCUCGCUGCUCCCGCUCCCGUCUUCGCUCUGUCUCCCGGAUUUCACGCUCCAACAGAGGAUUGAGCAUCA
B21: chr8:95500983:95500984:-_ENSG00000164944_ENST00000437199|hu_hu|hu_hu_hu_mus_True|28_38 (ssRNA)
RNA: GGGAGUUCUACAGUCCGACGAUCAGAACACAUCUAUCGAGUAAAGGACCGUACAUGACGGCCUCUACCACUGCCUCCACUAACAAACUUUCCUCUCUGAGCCUCCACUGCCGCUAUUGUACUAGCCCAGGACGGUCCCAGGCCCAACAGAGGAUUGAGCAUCA
B22: chr10:18963012:18963013:+_ENSG00000165997_ENST00000377275|hu_hu|motif|central (ssRNA)
RNA: GGGAGUUCUACAGUCCGACGAUCCCCUUCUCCUGUGAGAGCACAGCAGGAUUGAAUGUGCCAUGGAUGAUCCUUAAUUGAACGGAGGGUGAGGUAUUUCGAGAUUUCAGCUGCUGUCAUACACCCUUUCAUAUCCUGUUUAUUCAACAGAGGAUUGAGCAUCA

target: T1, UNK ZnF1-3 (human, UniProt Q9C0B0 31-174); test: nsRBNS (natural sequence RNA bind-n-seq); RBNS binding buffer (assumed for nsRBNS): 25 mM Tris pH 7.5, 150 mM KCl, 3 mM MgCl2, 0.01% Triton X-100, 500 ug/ml BSA, 20 U/ml SUPERase-In, 4 C; UNK is unkempt and MSI1 is Musashi-1; names of the RNAs are library labels; protein concentration not given here; high values mean tight binding
T1 sequence: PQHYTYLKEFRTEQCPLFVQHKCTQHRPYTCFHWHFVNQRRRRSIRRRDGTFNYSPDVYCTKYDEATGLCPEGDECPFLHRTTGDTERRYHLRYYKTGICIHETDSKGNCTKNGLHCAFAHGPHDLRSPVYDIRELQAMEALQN

Question: How did the binding signal turn out when B1 was run?
Answer: Its binding signal is 2.05 enrichment R.

Question: For B2, which binding signal is on record?
Answer: Its binding signal is 1.43 enrichment R.

Question: How did the binding signal turn out when B3 was run?
Answer: Its binding signal is 1.76 enrichment R.

Question: How did the binding signal turn out when B4 was run?
Answer: The binding signal was 1.22 enrichment R.

Question: For B5, which binding signal is on record?
Answer: The binding signal was 0.388 enrichment R.

Question: For B6, which binding signal is on record?
Answer: Its binding signal is 1.27 enrichment R.

Question: For B7, which binding signal is on record?
Answer: The binding signal was 0.667 enrichment R.

Question: With B8 as the binder, how does the binding signal read?
Answer: Its binding signal is 1.32 enrichment R.

Question: Which binding signal does the source give for B9 here?
Answer: The binding signal was 0.823 enrichment R.

Question: With B10 as the binder, how does the binding signal read?
Answer: Its binding signal is 1.83 enrichment R.

Question: For B11, which binding signal is on record?
Answer: Its binding signal is 1.43 enrichment R.

Question: B12 was tested. Which binding signal did it give?
Answer: The binding signal was 1.14 enrichment R.

Question: With B13 as the binder, how does the binding signal read?
Answer: The binding signal was 0.864 enrichment R.

Question: Which binding signal does the source give for B14 here?
Answer: The binding signal was 1.14 enrichment R.

Question: With B15 as the binder, how does the binding signal read?
Answer: The binding signal was 1.07 enrichment R.

Question: Which binding signal does the source give for B16 here?
Answer: Its binding signal is 0.978 enrichment R.

Question: Which binding signal does the source give for B17 here?
Answer: The binding signal was 1.5 enrichment R.

Question: Which binding signal does the source give for B18 here?
Answer: The binding signal was 0.955 enrichment R.

Question: For B19, which binding signal is on record?
Answer: The binding signal was 1.07 enrichment R.

Question: Which binding signal does the source give for B20 here?
Answer: The binding signal was 0.771 enrichment R.

Question: Which binding signal does the source give for B21 here?
Answer: Its binding signal is 0.924 enrichment R.

Question: For B22, which binding signal is on record?
Answer: Its binding signal is 1.17 enrichment R.
